Out of some 48,000 compounds screened, about 120 (0.25%) were called active. Not shown: some 4% with an inconclusive outcome. The call rests on the fitted dose curve; in most records, active means well fitted activation curve with a large enough effect; inconclusive means small, poorly fitted or top-dose-only effect, or another doubt; inactive means no such curve, though single readings can be large or run the other way. This is one part of the list.

A short description of this experiment: Primary qHTS for Identification of Small Molecule Activators of Huntingtin-Antisense Promoter Activity. Further: nearly all actives have a fitted effect of over 55% in size. To be noted: HEK293 HTT-AS promoter firefly luciferase reporter, 24 h; series mostly up to 57.5 µM; activity change, positive = activation: at the top concentration. A digest of the protocol:
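HEK293 cells carrying firefly luciferase reporters were seeded at 2,500 per well in Opti-MEM and cultured for 24 h. They were then treated with compounds at up to 57.5 uM final for 24 h at 37 degrees C before Dual-Glo luminescence readout.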
In the case of `COc1cc(OC)cc(-n2c(=O)c3sccc3n(Cc3c(C)cc(C)cc3C)c2=O)c1`, the “activity change, positive = activation” value was inactive: -12.2%.

As for `Cc1ccc(NC(=O)c2cc(S(=O)(=O)N3CCc4ccccc43)ccc2F)cc1Cl`, the “activity change, positive = activation” value was inactive: -24.3%.

With `Cn1cc(S(=O)(=O)c2cccc(Cl)c2)c(=O)c2cc(F)c(N3CCN(c4ccccc4)CC3)cc21`, the “activity change, positive = activation” value was inactive: -6.72%.

On to `Cc1ccc2c(=O)c(C(=O)c3cccc(Cl)c3)cn(CC(=O)Nc3ccc4c(c3)OCCO4)c2n1`, for which the “activity change, positive = activation” value was inactive: -20.5%.

Consider `CN1C(=O)Cc2cc(S(=O)(=O)CCC(=O)Nc3ccc(F)c(Cl)c3)ccc21`, for which the “activity change, positive = activation” value was inactive: 0.4%.

As for `CN(C)[C@@H]1C(=O)C(C(N)=O)=C(O)[C@@]2(O)C(=O)C3=C(O)c4c(O)ccc(Cl)c4[C@@H](O)[C@H]3C[C@@H]12`, the “activity change, positive = activation” value was inactive: -6.03%.

Regarding `O=C(Nc1cc(F)ccc1F)N1CCC(CN2CCCC2)CC1`, the “activity change, positive = activation” value was inactive: -3.99%.

As for `COc1ccc2c(c1)CCCC2=O`, the “activity change, positive = activation” value was inactive: 2.91%.

Consider `COc1cc(C2c3c(-c4cc(C)ccc4O)n[nH]c3C(=O)N2CCCO)ccc1OCCC(C)C` (configuration not stated), for which the “activity change, positive = activation” value is inactive: -34.5%.

For `CCc1ccccc1Nc1cc(C(=O)NC(C)c2ccccc2)c2ccccc2n1` (configuration not stated), the “activity change, positive = activation” value is inactive: -14.2%.

On to `CCCc1nn2c(=O)cc(COC(=O)c3ccccc3NC(=O)c3ccc(Cl)cc3)nc2s1`, for which the “activity change, positive = activation” value is inactive: -9.2%.

For the molecule `CCOC(=O)c1ccccc1NC(=O)N1CCC(CN2CCCCC2)CC1`, the “activity change, positive = activation” value is inactive: -6.43%.

For the molecule `CCOc1ccc(NC(=O)CN2CCCN(Cc3cc(C)ccc3C)S2(=O)=O)cc1`, the “activity change, positive = activation” value is inactive: -38.9%.

In the case of `Cc1ccc(NC(=O)C(C)Sc2nc(=O)cc(N)n2-c2ccccc2)cc1` (configuration not stated), the “activity change, positive = activation” value is inactive: -6.21%.

For `CCOC(=O)c1cccc(NC(=O)CCn2nc(C)c(S(=O)(=O)N3CCCCC3)c2C)c1`, the “activity change, positive = activation” value is inactive: -29.1%.

For the molecule `COc1ccc(S(=O)(=O)NCC(c2ccco2)N2CCOCC2)cc1C` (configuration not stated), the “activity change, positive = activation” value was inactive: -25.4%.

In the case of `COc1ccccc1N1CCN(S(=O)(=O)c2c(C)sc3ncn(CC(=O)Nc4ccccc4F)c(=O)c23)CC1`, the “activity change, positive = activation” value was inactive: 17.7%.

Regarding `COc1cccc(NC(=O)Cn2c(=O)n(-c3ccc(Cl)cc3)c(=O)c3sc4ccccc4c32)c1`, the “activity change, positive = activation” value is inactive: -16.9%.

Take `O=C(Cn1c(=O)nc(-c2ccccc2)c2cc(Cl)ccc21)NCCc1ccc(Cl)cc1`: the “activity change, positive = activation” value is inactive: -19.2%.

`CCc1ccc(NCc2cccn2-c2nnc(N3CCCCCC3)s2)cc1`: the “activity change, positive = activation” value is inactive: -79.2%.

As to `CCN1CCN(c2ncc3c(n2)CCN(Cc2ccc(Br)s2)C3)CC1`, the “activity change, positive = activation” value was inactive: -14.9%.

On to `CCc1ccc(-c2[nH]nc3nc(-c4ccc(OC)cc4)cc(C(=O)NCCc4ccc(OC)c(OC)c4)c23)cc1`, for which the “activity change, positive = activation” value is inactive: -71.2%.

On to `CCOc1ccc(NC(=O)CSc2nnc(CNC(=O)c3c(F)cccc3Cl)o2)cc1`, for which the “activity change, positive = activation” value is inactive: -8.82%.

For the molecule `COc1ccc(NC(=O)Cn2c(=O)n(CCc3ccccc3)c(=O)c3ccccc32)cc1`, the “activity change, positive = activation” value was inactive: 9.4%.

With `Cc1noc(-c2ccc(NCc3ccccc3)c([N+](=O)[O-])c2)n1`, the “activity change, positive = activation” value was inactive: 25.3%.

Turning to `COc1cccc(CNS(=O)(=O)c2cc3c(cc2C)n(C)c(=O)c(=O)n3C)c1`, the “activity change, positive = activation” value is inactive: -0.57%.

`CCCCNC(=O)c1c(C)oc2ncn(CC(C)C)c(=O)c12`: the “activity change, positive = activation” value is inactive: -26.5%.

Turning to `CCOc1ccc(NC(=O)Cn2nc(-c3ccncc3)ccc2=O)cc1`, the activity change, positive = activation was inactive: -6.32% [at 11.5 µM, percent change from vehicle, -100% = no light].

Turning to `O=C(c1cccc(Cl)c1)N1CCN(CCc2ccccn2)CC1`, the activity change, positive = activation is inactive: -12.2% [at 11.5 µM, percent change from vehicle, -100% = no light].

For the molecule `O=C(NCc1nc2cccnc2n1Cc1ccc(F)cc1)c1ccccc1C(F)(F)F`, the “activity change, positive = activation” value was inactive: -24.9%.

As for `Cc1ccccc1OCC(=O)Nc1cc(-c2cccc(Br)c2)nn1-c1ccccc1`, the “activity change, positive = activation” value is inactive: 6.07%.

`Nc1c(-c2nc(-c3ccncc3)no2)nnn1CC(=O)Nc1ccccc1`: the “activity change, positive = activation” value was inactive: -11.3%.

As for `COc1ccccc1CNCCSc1nnnn1C`, the “activity change, positive = activation” value was inactive: -8.38%.

As for `COc1ccc(C(=O)N(Cc2ccco2)Cc2ccco2)cc1`, the “activity change, positive = activation” value was inactive: -1.5%.

Turning to `Cc1ccccc1CN1C(=O)c2ccccc2Sc2ccc(C(=O)NCc3cccs3)cc21`, the “activity change, positive = activation” value was inactive: -19.7%.

Turning to `Cc1noc(/C=C/c2ccccc2F)c1S(=O)(=O)N1CCC(C(=O)N(C)Cc2ccco2)CC1`, the “activity change, positive = activation” value is inactive: 2.99%.

Turning to `CCC(=O)N1CCc2cc(Br)cc(S(=O)(=O)N3CCCC(C(=O)NCc4ccccc4)C3)c21` (configuration not stated), the “activity change, positive = activation” value is inactive: -23.4%.

`COC(=O)c1c(N)n(-c2cc(Cl)cc(Cl)c2)c2nc3ccccc3nc12`: the “activity change, positive = activation” value is inactive: -12.6%.

As to `CCCN1Cc2cccc(C(=O)Nc3cc(C)cc(C)c3)c2C1=O`, the “activity change, positive = activation” value was inactive: -6.77%.

As for `CC(=O)Nc1ccc(C)cc1-c1nc2ccccc2n(CC(=O)Nc2cc(Cl)ccc2C)c1=O`, the “activity change, positive = activation” value was inactive: -26.6%.

For the molecule `COc1ccc(Cl)cc1NC(=O)CCC(=O)N1CCOc2ccccc21`, the “activity change, positive = activation” value was inactive: -13.4%.

In the case of `O=C1c2cccc3c2[C@H](CCC3)CN1[C@@H]1CN2CCC1CC2`, the “activity change, positive = activation” value was inactive: 6.53%.

Regarding `COc1ccc(NC(=O)CSc2nc(-c3ccco3)cc(C(F)(F)F)n2)cc1`, the “activity change, positive = activation” value is inactive: -25.5%.

In the case of `Cc1ccc2c(c1)N(C(=O)NCc1ccccc1)CCO2`, the “activity change, positive = activation” value was inactive: -8.42%.

Regarding `CCC(C)NC(=O)c1ccc2c(=O)n3c(nc2c1)CCCCC3` (configuration not stated), the “activity change, positive = activation” value was inactive: 21.7%.

As to `Cc1ccc(NC(=O)Cn2nnc3sc(-c4ccccc4)cc3c2=O)cc1Cl`, the “activity change, positive = activation” value was inactive: -3.31%.

With `COc1ccc(C(=O)NCC2(N3CCN(C)CC3)CCCCC2)cc1`, the “activity change, positive = activation” value is inactive: -8.69%.

Values taken from PubChem BioAssay AID1508624 (National Center for Advancing Translational Sciences (NCATS), 2021).
